Measured values taken from PubChem BioAssay (NCATS).
Several values for one entry are separate records, joined by “and”; a condition that tells them apart may be missing. Equal entries are not always repeated. The list shows a part of the results. These are further read-outs of the screen, such as a control signal, another cell line or another target. No call is given for them. Compounds called inactive in the main read-out are mostly missing here. The note in brackets gives the kind of curve behind each potency; many fits are weak.

Assay: qHTS Assay for Lipid Storage Modulators (AID 1519)
Settings: Drosophila S3 cells, BODIPY lipid droplet/cell ratio, laser cytometry, cells loaded with oleic acid
In short: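 Cells seeded at 5,000 per well were treated with compounds over a concentration series and loaded with oleic acid (400 uM, as added). Lipid droplet fluorescence (488 nm excitation, 500-530 nm channel) was read by laser-scanning cytometry and normalized to 20 uM Triacsin C.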

[1] = measured here: cell count channel max response
[2] = measured here: cell number channel AC50
[3] = measured here: lipid (BODIPY) channel AC50
[4] = measured here: lipid channel max response
Tags tell the direction and shape of the fitted curve.

| Compound | max response [1] | AC50 [2] | AC50 [3] | max response [4] |
| --- | --- | --- | --- | --- |
| COc1cccc(-c2nccc(NCc3ccc(OC)cc3OC)n2)c1 | 24.4% | 1.58 µM [rising, full curve] | 1.58 µM [rising, full curve] | 31.7% |
| CCN(CC)CCOC(=O)c1cc(Cl)c(N)cc1OC | 52.3% | 35.5 µM [rising, partial curve, poor fit] | 35.5 µM [rising, partial curve, poor fit] | 55.1% |
| CN(C)C(=O)c1ccc(-c2ccc3ncnc(N(C)Cc4ccco4)c3c2)cc1 | 15.9% | 4.47 µM [rising, partial curve, poor fit] | 4.47 µM [rising, partial curve] | 19.2% |
| CS(=O)(=O)Nc1cccc(-c2cc(Nc3ccccc3)ncn2)c1 | 21.6% | 0.0631 µM [rising, full curve, poor fit] | 0.178 µM [rising, full curve] | 24.4% |
| COc1ccccc1CCn1c(=O)c(-c2ccccc2)nc2cncnc21 | 12.3% | 1.41 µM [rising, partial curve] | 0.0398 µM [rising, full curve, poor fit] | 24.5% |
| COc1ccc(CNc2ncncc2-c2ccc(N(C)C)cc2)c(OC)c1 | 23.9% | 1.78 µM [rising, full curve] | 1.12 µM [rising, full curve, poor fit] | 27.6% |
| COc1ccc(-n2c(=O)c(-c3ccc(F)cc3)nc3cncnc32)cc1 | 42.8% | 8.91 µM [rising, partial curve] | 3.55 µM [rising, partial curve] | 46.9% |
| N#Cc1cccc(-c2ccc3ncnc(N4CCNCC4)c3c2)c1 | 29.6% | 0.1 µM [rising, full curve, poor fit] | 0.224 µM [rising, full curve] | 39.6% |
| O=C(O)C1CN(CCCP(=O)(O)O)CCN1 (stereo unspecified) | -55% | 15.8 µM [falling, partial curve, poor fit] | 25.1 µM [falling, partial curve, poor fit] | -54.9% |
| CCS(=O)(=O)N1CCC[C@H]2CN3CCc4cc(OC)ccc4[C@@H]3C[C@@H]21 | 51.7% | 7.94 µM [rising, partial curve, poor fit] | 15.8 µM [rising, partial curve, poor fit] | 64.6% |
| COc1ccc(Oc2ncc3nc(-c4cccc(C#N)c4)c(=O)n(Cc4cccc(OC)c4)c3n2)cc1 | 17.7% | 0.631 µM [rising, full curve, poor fit] | 0.708 µM [rising, full curve, poor fit] | 21.9% |
| Cc1c(C(=O)NN2CCOCC2)nn(-c2ccc(Cl)cc2Cl)c1-c1ccc(I)cc1 | 56.5% | 5.62 µM [rising, full curve] | 5.01 µM [rising, full curve] | 69.7% |
| Cc1cnc(CNc2cc(-c3ccccc3C)ncn2)cn1 | 46.6% | 22.4 µM [rising, partial curve, poor fit] | 14.1 µM [rising, partial curve, poor fit] | 55.1% |
| CN(C)c1ncnc2ccc(-c3cccc(NS(C)(=O)=O)c3)cc12 | 20.1% | 6.31 µM [rising, single point] | 7.08 µM [rising, single point] | 19.8% |
| CSCCC(N)C(=O)NC(CC(C)C)C(=O)NC(Cc1ccccc1)C(=O)O (stereo unspecified) | 30.3% | 11.2 µM [rising, partial curve, poor fit] | 6.31 µM [rising, partial curve] | 39.9% |
| O=C(c1ccco1)N1CCC2(CCCN(c3ccncc3)C2)CC1 | 6.02% | 7.08 µM [rising, single point] | 6.31 µM [rising, single point] | 14.1% |
| COc1ccccc1CCn1c(=O)cnc2cncnc21 | 10.1% | 0.562 µM [rising, full curve] | 0.631 µM [rising, full curve, poor fit] | 10.8% |
| CCNc1ncc2nc(CCc3ccccc3)c(=O)n(C3CC3)c2n1 | 16.1% | 0.891 µM [rising, full curve] | 1 µM [rising, full curve] | 17.9% |
| COc1ccc(-n2c(=O)c(-c3ccc(F)c(F)c3)nc3cncnc32)cc1 | 36.5% | 1.26 µM [rising, full curve, poor fit] | 0.891 µM [rising, full curve] | 41.2% |
| CCNc1ncc2nc(-c3cc(F)cc(F)c3)c(=O)n(CCC#N)c2n1 | 46% | 8.91 µM [rising, partial curve, poor fit] | 0.178 µM [rising, full curve, poor fit] | 22.1% |

| Compound | max response [1] | AC50 [2] | AC50 [3] | max response [4] |
| --- | --- | --- | --- | --- |
| CN1C(C)(C)CCCC1(C)C | 40.8% | 39.8 µM [rising, single point] | 39.8 µM [rising, single point] | 41.7% |
| COC(=O)N1CCC2(CCCN(Cc3cc(C(F)(F)F)cc(C(F)(F)F)c3)C2)CC1 | 41.9% | 14.1 µM [rising, partial curve] | 17.8 µM [rising, partial curve] | 59.6% |
| O=C(O)CN(CC(=O)O)Cc1cc2c(-c3ccccc3C(=O)O)c3cc(CN(CC(=O)O)CC(=O)O)c(=O)cc-3oc2cc1O | -102% | 1.26 µM [falling, full curve] | 0.891 µM [falling, full curve] | -99.5% |
| COc1ccccc1N1CCN(CCN2C(=O)CC3(CCCC3)CC2=O)CC1 | 64.3% and 71% | 15.8 µM [rising, partial curve, poor fit] | 15.8 µM [rising, partial curve] | 84.4% and 75.1% |
| CC(=O)NCCNc1nc(-c2cccc(C#N)c2)nc2ccccc12 | 33.4% | 0.355 µM [rising, full curve, poor fit] | 0.355 µM [rising, full curve, poor fit] | 37.4% |
| Cc1[nH]ccc2c1[nH]c1cc(=O)ccc12 | 111% | 0.794 µM [rising, full curve] | 0.891 µM [rising, full curve] | 142% |
| Cc1cccc(-c2cc(=O)c3cc(Br)ccc3o2)c1 | 114% | 2.24 µM [rising, full curve] | 2.24 µM [rising, full curve] | 147% |
| CN1CCN(c2ncc3nc(-c4cccc(C#N)c4)c(=O)n(CCc4ccccc4)c3n2)CC1 | -41.4% | 39.8 µM [falling, single point] | 39.8 µM [falling, single point] | -55.1% |
| CO[C@]12C[C@@H](COC(=O)c3cncc(Br)c3)CN(C)[C@@H]1Cc1cn(C)c3cccc2c13 | 119% | 12.6 µM [rising, partial curve] | 14.1 µM [rising, partial curve] | 155% |
| COc1ccccc1CNc1nc(-c2cccc(C#N)c2)nc2ccccc12 | 24.3% | 0.1 µM [rising, full curve, poor fit] | 0.0501 µM [rising, full curve, poor fit] | 35.8% |
| CN(C)c1ncc2nc(-c3ccccc3)c(=O)n(CCc3ccccc3)c2n1 | 34.7% | 0.0891 µM [rising, full curve] | 0.0794 µM [rising, full curve] | 39.7% |
| CCNc1ncc2nc(-c3ccccc3)c(=O)n(CCc3ccccc3)c2n1 | 25% | 0.0447 µM [rising, full curve, poor fit] | 0.126 µM [rising, full curve, poor fit] | 31.1% |
| COc1cccc2c1C(=O)c1c(O)c3c(c(O)c1C2=O)C[C@](O)(C(C)=O)C[C@H]3O[C@@H]1C[C@H](N)[C@H](O)[C@H](C)O1 | -65.9% | 11.2 µM [falling, partial curve] | 4.47 µM [falling, partial curve] | -86% |
| O=S(=O)(c1cccc2cnccc12)N1CCNCC1 | 64% | 15.8 µM [rising, full curve] | 22.4 µM [rising, partial curve, poor fit] | 88.5% |
| COc1cc2c(cc1OC)C1C(=O)c3ccc4c(c3OC1CO2)C=CC(C)(C)O4 (stereo unspecified) | -27.2% | 0.178 µM [falling, full curve, poor fit] | 0.562 µM [falling, full curve] | -90.5% |
| CN(C)C(=O)c1ccc(-c2cncnc2Nc2ccc(F)cc2)cc1 | 32.1% | 2.82 µM [rising, full curve] | 2.82 µM [rising, full curve] | 40.9% |
| CC(=O)Nc1ccc(-c2nc3ccc(Cl)cc3[nH]2)cc1 | 106% | 0.891 µM [rising, full curve] | 0.708 µM [rising, full curve] | 128% |
| c1cn(-c2ccnc(-c3ccc4c(c3)OCO4)n2)cn1 | 29.6% | 0.141 µM [rising, full curve] | 0.141 µM [rising, full curve] | 33.7% |
| O=C(c1ccncc1)N1CCC[C@@]2(CCN(c3ccccc3)C2)C1 | 34.6% | 25.1 µM [rising, single point] | 17.8 µM [rising, partial curve, poor fit] | 41.7% |
